Results published in the supplement of paper PMC6135742.
Several values for one entry are separate records, joined by “and”; a condition that tells them apart may be missing. Identical values can stand only once. Counter-ions that a name gives are not always drawn. ± gives the standard deviation of the averaged measurements. In all, about 2,600 compounds were measured (“total cell number (DAPI+ nuclei) relative to DMSO vehicle control”: median about -1.4, lowest 2% from about -23 on). Some of the results follow.

tested on: jimpy (Plp1 jimpy) mouse iPSC-derived oligodendrocyte progenitor cells; test: total cell number (DAPI+ nuclei) relative to DMSO vehicle control (SDs above negative control mean); higher = more surviving cells; settings: 10 µM; 3 days

| SMILES | total cell number |
| --- | --- |
| Cc1ccc(C)c(OCCCC(C)(C)C(=O)O)c1 [Gemfibrozil] | -0.831 |
| O=c1[nH]c2cc(Cl)ccc2c(O)c1-c1cccc(Oc2ccccc2)c1 | -1.89 |
| O=C(CCCN1CCC(O)(c2ccc(Cl)cc2)CC1)c1ccc(F)cc1 [Haloperidol] | -2.63 ± 0.44 |
| COc1cc2c(cc1OC)[C@@H]1Cc3ccc(OC)c(OC)c3CN1CC2 [Rotundine] | -1.92 |
| Cc1cccc(-c2[nH]ncc2-c2ccc3ncccc3n2)n1 | -0.693 ± 1.4 |
| Cc1ccccc1C(=O)Nc1ccc(C(=O)N2CCCC(N(C)C)c3ccccc32)cc1 (configuration not stated) [Mozavaptan] | -3.94 |
| O=C(NCCCNc1nc(Nc2cccc(NC(=O)N3CCCC3)c2)ncc1I)c1cccs1 | -23.5 |
| NCCCCN [Putrescine dihydrochloride] | -0.41 |
| CN(Cc1ccc(C(C)(C)C)cc1)Cc1cccc2ccccc12 [Butenafine HCl] | 5.88 |
| S=c1[nH]cnc2nc[nH]c12 [Mercaptopurine (6-MP)] | -5.89 |
| NS(=O)(=O)c1ccc(NC(=O)Nc2ccc(F)cc2)cc1 | -0.583 |
| CCCCC1(C2CCCC2)Cc2cc(OCC(=O)O)c(Cl)c(Cl)c2C1=O (stereo in doubt) [R(+)-Butylindazone] | -0.443 |
| Cc1cc(F)c(Nc2ncnc3cc(OCc4ccccc4)ccc23)cc1O | -9.22 |
| Nc1nc2c(ncn2[C@@H]2O[C@H](CO)[C@@H](O)[C@@H]2O)c(=O)[nH]1 [Ara-G hydrate] | -1.45 |
| O=c1[nH]c(=O)n([C@H]2C[C@H](O)[C@@H](CO)O2)cc1C(F)(F)F [Trifluridine] | -14.5 |
| Cc1cc(C#N)cc(C)c1Oc1nc(Nc2ccc(C#N)cc2)nc(N)c1Br [Etravirine (TMC125)] | 0.592 |
| Cc1nnc(SCC2=C(C(=O)O)N3C(=O)[C@@H](NC(=O)Cn4cnnn4)[C@H]3SC2)s1 [Cefazolin sodium] | -1.93 |
| Cn1cncc1[C@@](N)(c1ccc(Cl)cc1)c1ccc2c(c1)c(-c1cccc(Cl)c1)cc(=O)n2C [Tipifarnib] | -21.4 |
| O=C1OC(=O)[C@H]2[C@@H]1[C@@H]1CC[C@H]2O1 [Norcantharidin] | -4.44 |
| O=C(NNc1ccccc1)c1ccncc1 | -0.0247 |
| CC(C)n1cnc2c(NCCc3ccc(O)cc3)nc(-c3csc4ccccc34)nc21 [StemRegenin 1 (SR1)] | -8.19 |
| CC(C)Cn1cnc2c(N)nc3ccccc3c21 [Imiquimod] | -0.448 |
| CN(C)c1ccc(-c2nc3ncc(Cl)c(N4CCN(CC(=O)Nc5nccs5)CC4)c3[nH]2)cc1 | 1.85 |
| NC(=O)N1c2ccccc2CC(=O)c2ccccc21 [Oxcarbazepine] | -1.04 |
| NC1=NCC2c3ccccc3Cc3ccccc3N12 (configuration not stated) [Epinastine HCl] | 1.45 |
| NC1=NCC2c3ccccc3Cc3ccccc3N12 (configuration not stated) [Epinastine hydrochloride] | -2.66 |

| SMILES | total cell number |
| --- | --- |
| Oc1nc(-c2ccc(C(F)(F)F)cc2)nc2c1CSCC2 | -8.16 |
| CSc1c(C)c(SC)n2ccncc12 [Oltipraz metabolite M2] | -3.2 |
| COc1cc2c(cc1OC)-c1c/c(=N\c3c(C)cc(C)cc3C)n(C)c(=O)n1CC2 [Trequinsin hydrochloride] | -0.581 |
| Cc1cccc(Nc2ccncc2S(=O)(=O)NC(=O)NC(C)C)c1 [Torsemide] | -0.795 |
| Cc1ccc(Cl)cc1N(CC(=O)Nc1c(F)cccc1F)S(C)(=O)=O | -0.321 |
| O=C(c1ccc(F)cc1)N1CCC[C@H](c2nc(-c3ccc(F)cc3)no2)C1 | -0.73 |
| O=C1N=C(O)NC1(c1ccccc1)c1ccccc1 [Phenytoin sodium] | 0.728 ± 1.1 |
| CCOC(=O)[C@@H](N)Cc1ccc(O)c(O)c1 [L-Dopa ethyl ester] | -2.07 |
| O=C1Nc2ccc(I)cc2/C1=C/c1cc(Br)c(O)c(Br)c1 | -2 ± 1.2 |
| CN(C)c1cc(NC(=O)CNC(C)(C)C)c(O)c2c1C[C@H]1C[C@H]3[C@H](N(C)C)C(O)=C(C(N)=O)C(=O)[C@@]3(O)C(O)=C1C2=O [Tigecycline] | -2.34 |
| CC1(C)O[C@@H]2[C@@H](CO[C@@]3(COS(N)(=O)=O)OC(C)(C)O[C@@H]23)O1 [Topiramate] | 0.307 |
| COc1cc(NS(=O)(=O)c2ccc(N)cc2)nc(OC)n1 [Sulphadimethoxine] | -0.58 |
| COc1ccc2cc3[n+](cc2c1OC)CCc1cc2c(cc1-3)OCO2 [Berberine HCl] | -10.6 |
| COc1cc2c(cc1Cc1cccc(Cl)c1F)c(=O)c(C(=O)O)cn2[C@H](CO)C(C)C [Elvitegravir (GS-9137, JTK-303)] | -9.4 |
| CC(=O)NC[C@H]1CN(c2ccc(N3CCOCC3)c(F)c2)C(=O)O1 [Linezolid] | 0.892 ± 2.1 |
| O=c1c2ccccc2[nH]c(=S)n1CCN1CCC(=C(c2ccc(F)cc2)c2ccc(F)cc2)CC1 [Diacylglycerol Kinase Inhibitor II] | -0.322 |
| Cc1nccn1CC1CCc2c(c3ccccc3n2C)C1=O (configuration not stated) [Ondansetron HCl] | 6.45 |
| COc1ccc2c(c1)c(CC(=O)OCC(=O)O)c(C)n2C(=O)c1ccc(Cl)cc1 [Acemetacin] | -5.97 |
| CN1CC(=O)N=C1NC(=O)Nc1cccc(Cl)c1 [Fenobam] | -1.83 |
| CCCc1c(OCCCOc2ccc(OCC(=O)O)cc2)ccc(C(C)=O)c1O | -1.19 |
| CC1=C(C(=O)O)N2C(=O)[C@@H](NC(=O)[C@H](N)c3ccccc3)[C@H]2SC1 [Cephalexin hydrate] | -0.337 |
| CC1=C(C(=O)O)N2C(=O)[C@@H](NC(=O)[C@H](N)c3ccccc3)[C@H]2SC1 [Cephalexin] | -5.01 |
| CC[C@H](C)C(=O)O[C@H]1C[C@H](O)C=C2C=C[C@H](C)[C@H](CC[C@@H](O)C[C@@H](O)CC(=O)O)[C@H]21 [Pravastatin sodium] | -3.03 |
| Cc1ccc(S(=O)(=O)/C=C/C#N)cc1 | -3.49 and -9.02 |
| Nc1ccccc1NC(=O)c1ccc(CNc2nccc(-c3cccnc3)n2)cc1 [Mocetinostat (MGCD0103)] | -16.5 |
| C[C@H](CCC(=O)NCCS(=O)(=O)O)[C@H]1CC[C@H]2[C@@H]3[C@H](O)C[C@@H]4C[C@H](O)CC[C@]4(C)[C@H]3C[C@H](O)[C@]12C [Sodium Taurocholate hydrate] | 0.747 |
